Consider 7 substances from PMC5133542.

Sequences of proteins named here, by UniProt entry; tags and fusion partners are left off.
UniProt Q13616: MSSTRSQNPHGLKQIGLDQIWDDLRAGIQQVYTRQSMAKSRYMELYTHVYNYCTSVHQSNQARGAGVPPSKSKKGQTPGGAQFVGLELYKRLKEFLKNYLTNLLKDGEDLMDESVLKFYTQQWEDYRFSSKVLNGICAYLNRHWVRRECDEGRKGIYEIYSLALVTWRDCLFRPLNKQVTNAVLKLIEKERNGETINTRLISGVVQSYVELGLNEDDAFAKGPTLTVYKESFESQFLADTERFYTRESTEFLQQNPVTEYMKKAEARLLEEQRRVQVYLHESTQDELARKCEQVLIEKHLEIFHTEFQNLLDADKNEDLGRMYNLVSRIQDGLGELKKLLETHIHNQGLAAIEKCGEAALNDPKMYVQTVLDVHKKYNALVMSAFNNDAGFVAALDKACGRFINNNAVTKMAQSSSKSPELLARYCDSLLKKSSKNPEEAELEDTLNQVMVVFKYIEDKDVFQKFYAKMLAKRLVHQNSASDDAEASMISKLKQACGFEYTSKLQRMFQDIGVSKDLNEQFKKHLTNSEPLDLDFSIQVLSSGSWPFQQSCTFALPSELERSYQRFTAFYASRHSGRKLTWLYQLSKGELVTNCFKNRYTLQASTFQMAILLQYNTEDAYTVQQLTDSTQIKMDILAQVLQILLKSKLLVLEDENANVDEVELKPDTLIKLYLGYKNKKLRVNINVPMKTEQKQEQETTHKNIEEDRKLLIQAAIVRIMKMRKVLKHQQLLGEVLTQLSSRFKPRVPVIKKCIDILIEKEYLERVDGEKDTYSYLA
UniProt Q93034: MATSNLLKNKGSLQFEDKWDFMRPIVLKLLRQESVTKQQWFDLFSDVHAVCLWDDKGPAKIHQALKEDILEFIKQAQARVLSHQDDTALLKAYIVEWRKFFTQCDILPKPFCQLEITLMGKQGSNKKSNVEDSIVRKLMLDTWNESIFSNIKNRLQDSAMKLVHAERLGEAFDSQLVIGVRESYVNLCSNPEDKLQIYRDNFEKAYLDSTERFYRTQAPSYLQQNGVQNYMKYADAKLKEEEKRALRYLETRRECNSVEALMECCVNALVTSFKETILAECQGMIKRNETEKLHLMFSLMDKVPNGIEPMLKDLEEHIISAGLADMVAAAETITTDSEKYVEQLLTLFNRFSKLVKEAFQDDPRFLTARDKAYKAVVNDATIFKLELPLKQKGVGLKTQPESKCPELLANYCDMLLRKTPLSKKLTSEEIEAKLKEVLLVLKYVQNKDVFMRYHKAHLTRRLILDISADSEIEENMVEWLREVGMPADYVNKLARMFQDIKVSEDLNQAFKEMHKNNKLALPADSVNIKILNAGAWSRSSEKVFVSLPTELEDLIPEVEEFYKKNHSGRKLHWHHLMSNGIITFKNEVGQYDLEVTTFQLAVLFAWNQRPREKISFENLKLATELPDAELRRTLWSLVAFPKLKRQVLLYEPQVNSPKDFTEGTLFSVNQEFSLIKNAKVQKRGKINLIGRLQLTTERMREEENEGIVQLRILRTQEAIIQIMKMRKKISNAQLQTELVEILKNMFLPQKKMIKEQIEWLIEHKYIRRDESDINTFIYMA
UniProt P61077: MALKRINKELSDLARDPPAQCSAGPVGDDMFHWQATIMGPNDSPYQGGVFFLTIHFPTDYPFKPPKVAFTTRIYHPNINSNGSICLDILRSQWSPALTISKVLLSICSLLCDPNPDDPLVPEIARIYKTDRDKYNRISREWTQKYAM
UniProt O00762: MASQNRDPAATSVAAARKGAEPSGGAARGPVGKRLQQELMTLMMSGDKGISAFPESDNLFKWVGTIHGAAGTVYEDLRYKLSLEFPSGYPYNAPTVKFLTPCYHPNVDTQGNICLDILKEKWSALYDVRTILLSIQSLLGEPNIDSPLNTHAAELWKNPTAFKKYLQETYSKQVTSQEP
UniProt Q16763: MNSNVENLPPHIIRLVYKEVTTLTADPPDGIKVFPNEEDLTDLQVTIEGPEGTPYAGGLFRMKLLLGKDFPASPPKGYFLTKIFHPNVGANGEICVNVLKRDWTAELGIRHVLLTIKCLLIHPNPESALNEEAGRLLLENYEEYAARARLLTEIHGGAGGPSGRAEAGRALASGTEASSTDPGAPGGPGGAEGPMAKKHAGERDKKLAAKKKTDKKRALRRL
UniProt Q9UBF6: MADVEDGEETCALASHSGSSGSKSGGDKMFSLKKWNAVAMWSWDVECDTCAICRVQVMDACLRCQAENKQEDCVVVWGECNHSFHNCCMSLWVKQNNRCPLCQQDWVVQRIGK
UniProt P49427: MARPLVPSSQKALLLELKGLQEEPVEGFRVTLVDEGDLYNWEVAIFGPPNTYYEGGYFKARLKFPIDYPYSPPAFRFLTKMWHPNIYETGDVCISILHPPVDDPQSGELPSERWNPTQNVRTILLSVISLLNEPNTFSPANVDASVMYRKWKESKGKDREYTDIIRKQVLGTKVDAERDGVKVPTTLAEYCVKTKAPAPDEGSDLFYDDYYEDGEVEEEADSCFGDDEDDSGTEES
UniProt Q9Y297: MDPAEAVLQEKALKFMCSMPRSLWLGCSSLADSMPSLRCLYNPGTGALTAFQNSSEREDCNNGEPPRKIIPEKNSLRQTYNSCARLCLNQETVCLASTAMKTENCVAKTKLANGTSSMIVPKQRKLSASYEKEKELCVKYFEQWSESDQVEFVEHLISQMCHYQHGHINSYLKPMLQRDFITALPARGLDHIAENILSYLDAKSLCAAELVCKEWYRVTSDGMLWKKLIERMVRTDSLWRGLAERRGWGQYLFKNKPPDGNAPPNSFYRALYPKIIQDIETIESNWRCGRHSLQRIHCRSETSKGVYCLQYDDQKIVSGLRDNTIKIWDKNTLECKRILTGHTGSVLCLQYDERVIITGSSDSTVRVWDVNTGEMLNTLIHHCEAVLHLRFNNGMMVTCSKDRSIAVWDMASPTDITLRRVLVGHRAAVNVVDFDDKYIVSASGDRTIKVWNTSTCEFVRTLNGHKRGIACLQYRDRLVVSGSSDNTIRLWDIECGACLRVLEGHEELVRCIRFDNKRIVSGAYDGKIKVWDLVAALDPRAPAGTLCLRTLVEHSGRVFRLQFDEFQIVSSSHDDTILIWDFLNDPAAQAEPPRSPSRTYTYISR

One assay addresses FLAG-tagged CUL1 (UniProt Q13616). As to the kind of experiment: co-IP; 293T cells transfected with FLAG-tagged CUL1 or CUL5; IP with anti-FLAG Ab or IgG control, protein A&G beads, 4 °C; immunoblot of endogenous proteins.
In the next assay the target is FLAG-tagged CUL5 (UniProt Q93034). The description is as above.
In assay [1] the target is endogenous UBCH5C (human (endogenous in 293T and A549)) (UniProt P61077). As to the kind of experiment: co-IP; endogenous proteins; whole cell extracts of A549 cells (and a second lung cancer cell line), unstressed; IP with antibody against SAG or RBX1 or against each of four E2s; immunoblot. For orientation: A western blot detects proteins with antibodies after separation by electrophoresis.

The target in assay [2] is endogenous UBCH10/UBE2C (human (endogenous in 293T and A549)) (UniProt O00762). The assay is described as above.
Assay [3] deals with endogenous UBE2S (human (endogenous in 293T and A549)) (UniProt Q16763). Described as above.
The target in another assay is FLAG-SAG (UniProt Q9UBF6). Description: co-IP; 293T cells transfected with FLAG-SAG or FLAG-RBX1; IP with FLAG Ab or normal IgG control; immunoblot of endogenous E2s.
Assay [4] concerns the target endogenous SAG/RBX2 (human (endogenous in 293T and A549)) (UniProt Q9UBF6). As to the kind of experiment: co-IP; endogenous proteins; A549 cells untreated or treated with 10 μM MG132 for 4 hrs; whole cell extracts immunoprecipitated with antibodies against SAG or β-TrCP, IgG control; immunoblot.
For assay [5] the target is unchanged. Description: co-IP; endogenous proteins; whole cell extracts of A549 cells (and a second lung cancer cell line), unstressed; IP with antibody against SAG or RBX1 or against each of four E2s; immunoblot.
In assay [6] the target is endogenous CDC34 (human (endogenous in 293T and A549)) (UniProt P49427). The description is as above.

These are yes or no findings as the source states them, for the method shown. In cells and extracts the contact can be indirect. Some entries that bind do so weakly or less than the wild type.

As to “endogenous SAG/RBX2 (from UniProt Q9UBF6 1-113)”, the binding entry is listed as “binds” with FLAG-tagged CUL1; “binds” in the assay with FLAG-tagged CUL5; “binds weakly” in assay [1]; “binds” in [2]; “binds” in [3].

In the case of “endogenous CDC34 (from UniProt P49427 1-236) (enzyme)”, the binding entry with FLAG-SAG is listed as “no binding”; in assay [1] it was “binds”.

Regarding “endogenous β-TrCP1 (from UniProt Q9Y297 1-605)”, the binding result in the assay with FLAG-tagged CUL1 is given as “binds”.

For the substance “endogenous CUL5 (from UniProt Q93034 1-780)”, the binding result in [4] is “binds”.

In the case of “endogenous UBCH10/UBE2C (from UniProt O00762 1-179) (enzyme)”, the binding entry with FLAG-SAG is “binds”; in assay [1], “no binding”; in [5], “binds”; in assay [6] it was “no binding”.

For “endogenous UBCH5C (from UniProt P61077 1-147) (enzyme)”, the binding result (with FLAG-SAG; in assay [5]) was “binds weakly” each time.

As to “endogenous UBE2S (from UniProt Q16763 1-222) (enzyme)”, the binding result in the assay with FLAG-SAG is “binds”; in [5] it was “binds”; in assay [2], “binds”; in assay [6] it was “no binding”.
